# Test results reported in PubChem BioAssay (Tox21).
# Values joined by “and” are separate entries in the source; they are usually repeats but may differ in a detail not shown here. Equal entries are not always repeated. This list was built around the results that the source calls inconclusive (neither active nor inactive); the mix of calls is not that of the screen. Potencies beside an inconclusive call are fits to weak or partial responses and may not hold up. More than one record can exist for a structure, and the calls need not agree. Active and inactive are the calls of the source. Unless noted, the call rests on the fitted dose curve; in most records, active means well fitted curve in the direction sought with a large enough effect in the repeat runs; inconclusive means weak or mixed curves; inactive means no such curve, though single readings can be large; an effect the other way counts as inactive or inconclusive.
# Key:
# [1] = A CellTox Green Cytotoxicity Assay to monitor cytotoxicity in HEK293 cells - 16 hour (AID 1224888); further: nearly all actives have a fitted effect of over 35% in size
# How it was run: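 Read-out: fluorescence of a cell-impermeant cyanine dye staining DNA of dead cells, proportional to cytotoxicity. HEK293, 600 cells/well with reagent, compound (23 nL DMSO) added after 5 h; reads at 0, 8, 16, 24, 32, 40 h.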
# [2] = qHTS RealTime-Glo MT Cell Viability Assay in HepG2 cells - 0 hour (AID 1224889); further: nearly all actives have a fitted effect of over 50% in size
# How it was run: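 Compound treatment began 5 h after plating HepG2 cells (600/well) with NanoLuc luciferase and prosubstrate. Plates stayed at 37 C for 40 h; luminescence was captured at six time points, 0 h through 40 h.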
# [3] = target: Estrogen receptor (Homo sapiens) (UniProt P03372); assay: qHTS assay to identify small molecule antagonists of the estrogen receptor alpha (ER-alpha) signaling pathway using the BG1 cell line in the presence of 0.1 nM 17-beta-estradiol (AID 1259244); further: nearly all actives have a fitted effect of over 50% in size
# Chain of UniProt P03372 (P03372 whole entry, looked up): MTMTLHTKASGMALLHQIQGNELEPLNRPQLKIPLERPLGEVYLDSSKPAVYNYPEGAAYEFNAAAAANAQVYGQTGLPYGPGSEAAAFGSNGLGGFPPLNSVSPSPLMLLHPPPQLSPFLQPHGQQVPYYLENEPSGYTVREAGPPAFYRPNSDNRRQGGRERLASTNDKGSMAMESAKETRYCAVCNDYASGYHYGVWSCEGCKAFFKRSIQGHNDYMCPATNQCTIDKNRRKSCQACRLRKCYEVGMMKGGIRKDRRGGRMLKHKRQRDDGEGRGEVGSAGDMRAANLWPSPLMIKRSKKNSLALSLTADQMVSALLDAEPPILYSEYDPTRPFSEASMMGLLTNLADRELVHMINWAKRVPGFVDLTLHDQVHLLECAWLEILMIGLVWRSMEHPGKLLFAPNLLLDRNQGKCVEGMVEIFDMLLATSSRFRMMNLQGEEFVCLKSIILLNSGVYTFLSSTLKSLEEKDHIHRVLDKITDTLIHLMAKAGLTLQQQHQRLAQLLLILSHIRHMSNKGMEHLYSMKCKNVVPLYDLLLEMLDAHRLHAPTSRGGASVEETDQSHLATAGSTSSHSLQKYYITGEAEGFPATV
# How it was run: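 Luminescence after ONE-Glo (30 min, room temperature) measured ERE-luciferase activity in VM7Luc4E2 cells treated 22 h with compound and 0.1 nM final 17beta-estradiol as stimulator.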
# [4] = target: Estrogen receptor beta (Homo sapiens) (UniProt Q92731); assay: qHTS assay to identify small molecule antagonists of the estrogen receptor beta (ER-beta) signaling pathway (AID 1259378; active means well fitted inhibition curve with a large enough effect in the signal ratio in the repeat runs, not every such curve was filed as active; inconclusive means weak or mixed curves, or effect the other way; inactive means no such curve, though single readings can be large or run the other way; the % refers to the signal ratio; on activity, negative = inhibition: on the % scale 0 is the no-effect control and ±100 the full control effect); details: ER-beta-UAS-bla HEK293T, beta-lactamase FRET ratio, 16 h; activity, negative = inhibition: at 92.4 µM (top of the series) unless noted
# Chain of UniProt Q92731 (Q92731 whole entry, looked up): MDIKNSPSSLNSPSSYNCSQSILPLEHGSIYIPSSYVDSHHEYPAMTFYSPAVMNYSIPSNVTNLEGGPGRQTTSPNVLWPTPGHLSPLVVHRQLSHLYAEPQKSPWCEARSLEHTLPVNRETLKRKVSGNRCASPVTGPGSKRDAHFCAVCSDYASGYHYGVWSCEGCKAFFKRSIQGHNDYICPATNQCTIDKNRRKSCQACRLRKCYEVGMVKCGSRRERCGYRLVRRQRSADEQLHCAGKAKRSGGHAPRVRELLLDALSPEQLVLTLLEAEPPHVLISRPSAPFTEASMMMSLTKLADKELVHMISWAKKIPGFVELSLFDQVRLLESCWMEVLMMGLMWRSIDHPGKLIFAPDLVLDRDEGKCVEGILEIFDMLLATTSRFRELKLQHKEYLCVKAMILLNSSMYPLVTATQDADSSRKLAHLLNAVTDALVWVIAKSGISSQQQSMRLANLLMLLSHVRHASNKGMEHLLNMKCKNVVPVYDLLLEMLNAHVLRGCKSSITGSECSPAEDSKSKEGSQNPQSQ
# How it was run: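 Antagonist mode: compounds added to beta-lactamase reporter HEK293T ER-beta-UAS cells stimulated with E2 (1nM final), 16 hr at 37C. LiveBLAzer B/G FRET substrate, 2 hours room temperature, fluorescence read-out.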
# [5] = qHTS assay to identify small molecule antagonists of the estrogen receptor alpha (ER-alpha) signaling pathway using the BG1 cell line in the presence of 0.1 nM 17-beta-estradiol - cell viability counter screen (AID 1259241); further: nearly all actives have a fitted effect of over 40% in size
# How it was run: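 VM7Luc4E2, 4,000 cells/well, phenol red-free medium + 10% charcoal-stripped FBS; 24 hr plating; cpd + 0.1 nM E2 final, 22 hr 37C/5% CO2; CellTiter-Fluor 30 min, fluorescence.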
# [6] = qHTS assay to identify small molecule antagonists of the androgen receptor (AR) signaling pathway using the MDA cell line in the presence of 0.5 nM R1881 - cell viability counter screen (AID 1259242); further: nearly all actives have a fitted effect of over 45% in size
# How it was run: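 Live-cell protease fluorescence, CellTiter-Fluor, 30 min at 37C. Cells: MDA-kb2, 3,000/well, preincubated 5 hr. Compounds plus 0.5 nM R1881 final, 16 hr, 37C, 0% CO2.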
# [7] = qHTS assay to identify small molecule antagonists of the sonic hedgehog signaling (Shh) pathway (AID 1259369; calls by dose curve; further: nearly all actives have a fitted effect of over 45% in size)
# How it was run: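 Luminescence readout: firefly Luc under Gli1 response element in 3T3Gli1-Luc cells (NIH/3T3 clone). Antagonist mode, stimulation by conditioned medium; compound exposure 24hr at 37 C, 5% CO2.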
# [8] = qHTS assay to identify small molecule HDAC inhibitors - cell viability counter screen (AID 1259365); further: nearly all actives have a fitted effect of over 50% in size
# How it was run: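 Luminescence from CellTiter-Glo, developed 30min at room temperature, reports viability of wild-type HCT-116 cells treated 2hr with compounds at 37 C and 5% CO2 after overnight plating.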
# [9] = qHTS assay to identify small molecule agonists of the sonic hedgehog signaling (Shh) pathway - cell viability counter screen (AID 1259366); further: nearly all actives have a fitted effect of over 50% in size
# How it was run: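 Cytotoxicity counter screen run in the same wells as the Shh reporter assay. NIH/3T3 cells carrying a Gli1 response element–driven luciferase were treated with DMSO-dissolved compounds for 24hr, and live-cell protease activity was measured with CellTiter-Fluor.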
# [10] = target: Estrogen receptor beta (Homo sapiens) (UniProt Q92731); assay: qHTS assay to identify small molecule agonists of the estrogen receptor beta (ER-beta) signaling pathway (AID 1259377; active means well fitted activation curve with a large enough effect in the signal ratio in the repeat runs, not every such curve was filed as active; inconclusive means weak or mixed curves, or effect the other way; the % refers to the signal ratio; on activation: on the % scale 0 is the no-effect control and ±100 the full control effect); details: ER-beta-UAS-bla HEK293T, beta-lactamase FRET ratio, 16 h; activation: at 92.4 µM (top of the series) unless noted
# How it was run: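 HEK293T ER-beta-UAS-bla; 2% charcoal-stripped FBS; cells pre-incubated 6 hr, compound 16 hr, 37C/5% CO2; LiveBLAzer B/G FRET substrate 2 h RT; fluorescence intensity read.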
# [11] = A CellTox Green Cytotoxicity Assay to monitor cytotoxicity in HepG2 cells - 8 hour (AID 1224890); further: nearly all actives have a fitted effect of over 45% in size
# How it was run: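 HepG2, 600 cells/well premixed w/ CellTox Green; 5 h settle, 37 C/5% CO2; pintool cpd add (DMSO); 37 C, 40 h; fluorescence read at 0, 8, 16, 24, 32, 40 h.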
# [12] = target: Androgen receptor (Homo sapiens) (UniProt P10275); assay: qHTS assay to identify small molecule antagonists of the androgen receptor (AR) signaling pathway using the MDA cell line in the presence of 0.5 nM R1881 (AID 1259243); further: nearly all actives have a fitted effect of over 50% in size
# Chain of UniProt P10275 (P10275 whole entry, looked up): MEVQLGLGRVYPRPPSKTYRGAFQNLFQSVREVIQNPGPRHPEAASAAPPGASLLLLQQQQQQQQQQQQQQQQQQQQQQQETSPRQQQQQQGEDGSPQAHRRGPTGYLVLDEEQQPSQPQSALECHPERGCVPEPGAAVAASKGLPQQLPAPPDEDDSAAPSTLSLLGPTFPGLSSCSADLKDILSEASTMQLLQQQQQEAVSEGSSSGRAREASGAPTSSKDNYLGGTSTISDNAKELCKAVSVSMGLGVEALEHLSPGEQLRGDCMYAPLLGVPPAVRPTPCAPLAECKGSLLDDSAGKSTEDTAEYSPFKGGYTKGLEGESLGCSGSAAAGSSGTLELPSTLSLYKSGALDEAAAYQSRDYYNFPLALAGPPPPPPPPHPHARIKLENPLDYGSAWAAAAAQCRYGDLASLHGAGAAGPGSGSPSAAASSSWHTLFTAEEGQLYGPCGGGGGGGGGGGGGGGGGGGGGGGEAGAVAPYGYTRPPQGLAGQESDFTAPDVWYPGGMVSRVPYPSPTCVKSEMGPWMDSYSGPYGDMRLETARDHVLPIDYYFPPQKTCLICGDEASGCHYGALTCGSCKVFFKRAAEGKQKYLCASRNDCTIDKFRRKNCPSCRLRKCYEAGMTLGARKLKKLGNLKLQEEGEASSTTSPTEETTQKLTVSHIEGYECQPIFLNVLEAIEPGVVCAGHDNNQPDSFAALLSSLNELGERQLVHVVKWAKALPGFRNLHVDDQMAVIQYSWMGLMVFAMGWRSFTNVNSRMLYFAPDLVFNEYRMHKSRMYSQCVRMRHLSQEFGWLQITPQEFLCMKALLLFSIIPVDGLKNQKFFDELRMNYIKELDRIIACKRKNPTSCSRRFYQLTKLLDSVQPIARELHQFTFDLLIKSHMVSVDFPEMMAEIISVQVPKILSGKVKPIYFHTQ
# How it was run: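 MDA-kb2, MMTV-luc (AR/GR elements); 3,000 cells/well; cpd + 0.5 nM R1881 final; 16 hr 37C, 0% CO2; ONE-Glo 30 min RT; luminescence.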
# [13] = qHTS assay to identify small molecule HDAC inhibitors (AID 1259364);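 further: wild-type HCT-116 cells with endogenous class I/II HDAC activity; nearly all actives have a fitted effect of over 45% in size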
# How it was run: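 HCT-116 (wild type), 1,500 cells/well, overnight; compound 2 hr 37C 5% CO2; HDAC-Glo I/II reagent 30 min RT; luminescence readout.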
# [14] = qHTS assay to identify small molecule phospholipidosis (PLD) inducers (AID 1259344; active means well fitted curve in the direction sought with a large enough effect; inconclusive means small, poorly fitted or top-dose-only effect, or another doubt; inactive means no such curve, though single readings can be large; an effect the other way counts as inactive or inconclusive)
# How it was run: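 Phospholipid accumulation was scored by imaging: fixed, Hoechst-counterstained HepG2 cells stained with LipidTOX Red after 24 h compound exposure at 37 C. Read-outs were pit count and pit intensity per well or per cell, with amiodarone and DMSO controls.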
# [15] = qHTS assay to identify small molecule agonists of the androgen receptor (AR) signaling pathway in the presence of an antagonist - cell viability counter screen (AID 1259379); further: nearly all actives have a fitted effect of over 25% in size
# How it was run: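 Viability counter screen: CellTiter-Fluor fluorescence, measured in the same wells as the luciferase read-out. MDA-kb2 cells, 3,000/well, with nilutamide at 3.0uM final and compounds at 15 concentrations, 16 hr at 37C, 0% CO2.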
# Potency means the concentration at half of the fitted maximal effect; tags describe the fitted curve by direction and shape or compound fluorescence and quenching.
smiles,measurement,setting,value
O=c1oc2ccccc2c(O)c1C(CC(O)c1ccc(-c2ccc(Br)cc2)cc1)c1ccccc1 (configuration not stated),Potency,[1],inactive
same,Potency,[2],active: 20.7 µM and active: 21.3 µM
same,Potency,[3],"inconclusive: 64.9 µM [inhibitor, partial curve, poor fit]"
same,Potency,[4],active: 23 µM
same,"activity, negative = inhibition",[4],inconclusive: -19% [at 42.5 µM]
CCCCCCCCCCCCn1cc[n+](C)c1,Potency,[1],"inconclusive: 55.2 µM [activator, single point] and inconclusive: 55 µM [activator, single point]"
same,Potency,[5],"inconclusive: 77 µM [cytotoxic, single point]"
same,Potency,[6],"inconclusive: 2.19 µM [cytotoxic, full curve]"
same,Potency,[7],"inconclusive: 2.45 µM [inhibitor, full curve, poor fit] and inconclusive: 2.74 µM [inhibitor, full curve, poor fit] and inconclusive: 1.75 µM [inhibitor, partial curve]"
CCC[CH2][Sn]([CH2]CCC)([CH2]CCC)[CH2]CCC,Potency,[1],active: 24.5 µM
same,Potency,[6],"inconclusive: 10.9 µM [cytotoxic, full curve]"
same,Potency,[8],"inconclusive: 48.6 µM [cytotoxic, partial curve]"
same,Potency,[9],active: 13.7 µM
same,Potency,[10],inactive
Nc1ccc([N+](=O)[O-])cc1,Potency,[1],"inconclusive: 38.9 µM [activator, partial curve]"
same,Potency,[6],"inconclusive: 30.6 µM [cytotoxic, partial curve]"
same,Potency,[10],inconclusive: 27.3 µM [fluorescent]
same,Potency,[4],inconclusive: 13.7 µM [inhibitor]
O=[N+]([O-])c1ccc(Cl)c([N+](=O)[O-])c1,Potency,[2],"inconclusive: 21.9 µM [cytotoxic, single point]"
same,Potency,[11],"inconclusive: 55.8 µM [activator, single point]"
same,Potency,[5],active: 27.7 µM and active: 54.5 µM
same,Potency,[6],active: 24.7 µM and active: 21.7 µM
same,Potency,[12],"inconclusive: 12.2 µM [inhibitor, full curve, poor fit]"
same,Potency,[8],"inconclusive: 69.6 µM [cytotoxic, single point] and inconclusive: 68.6 µM [cytotoxic, single point]"
CCOP(=S)(OCC)OC(Cl)C(Cl)(Cl)Cl (configuration not stated),Potency,[1],inactive
same,Potency,[9],inactive
CCOP(=S)(OCC)SCSCC,Potency,[2],"inconclusive: 43.6 µM [cytotoxic, partial curve]"
N#CSCSC#N,Potency,[1],"inconclusive: 44.6 µM [activator, partial curve, poor fit] and inconclusive: 61.1 µM [activator, single point]"
same,Potency,[11],"inconclusive: 56.2 µM [activator, single point]"
same,Potency,[5],"active: 70.1 µM and inconclusive: 67.9 µM [cytotoxic, single point]"
same,Potency,[6],inconclusive: 67.9 µM [cytotoxic]
same,Potency,[12],"inconclusive: 67.9 µM [inhibitor, single point]"
same,Potency,[13],"inconclusive: 19.8 µM [inhibitor, partial curve] and inconclusive: 6.05 µM [inhibitor, full curve]"
same,Potency,[9],active: 11.1 µM and active: 6.79 µM
same,Potency,[4],"inconclusive: 27.9 µM and inconclusive: 76.2 µM [inhibitor, single point]"
O=C(CCCN1CCC2(CC1)C(=O)NCN2c1ccccc1)c1ccc(F)cc1,Potency,[1],inactive
same,Potency,[5],"inconclusive: 5.96 µM [cytotoxic, full curve]"
same,Potency,[14],"inconclusive: 3.55 µM [activator, single point]"
same,"activity, negative = inhibition",[4],inconclusive: -35.8% [at 42.5 µM]
CCCC[P+](CC)(CCCC)CCCC (tested in a mixture with another compound),Potency,[1],"inconclusive: 55.4 µM [activator, single point]"
same,Potency,[9],"inconclusive: 6.91 µM [rising, partial curve, poor fit]"
same,Potency,[7],inactive
same,Potency,[15],"inconclusive: 48.9 µM [cytotoxic, partial curve]"
CCCCCCCCCCCCOS(=O)(=O)O,Potency,[1],"inconclusive: 24.5 µM [activator, full curve, poor fit] and inconclusive: 43.6 µM [activator, partial curve]"
same,Potency,[7],"inconclusive: 53.7 µM [inhibitor, partial curve]"
Cl[C@H]1OCCO[C@@H]1Cl,Potency,[1],"inconclusive: 10.7 µM [activator, full curve, poor fit]"
same,Potency,[7],"inconclusive: 68.6 µM [inhibitor, single point]"
